{"source": "paper PMC12136788", "binders": {"B1": {"name": "15614643_15618832_3151_3pUTR_ENSMUSG00000021733_ENSMUST00000057015|mouse|control|control (ssRNA)", "RNA": "GGGAGUUCUACAGUCCGACGAUCCUUGCGCACAAAGACUAAUGCAAGAACCAUCAUGGGAAAAACUACUGCAGCAGCAGAGGCUUUGAUCACCCACAGCAGGACUAGGCAGGUCAGCUGGACGACCGUGAACACGUGCACCUUCAACAGAGGAUUGAGCAUCA"}, "B2": {"name": "chr7:30890253:30890254:+_ENSMUSG00000049421_ENSMUST00000108200|mus_mus|FALSE|FALSE (ssRNA)", "RNA": "GGGAGUUCUACAGUCCGACGAUCUUCUUUCUGGCUAAAAGCCUUACCACACUCAUUACACUUAAAAGGUUUCUUCCCACUAUGGAUAUUCUGGUGUUUAAUGAGGUAUUGCUUCUGGCUGAAGGCUCUUCCACACUGACUACACAACAGAGGAUUGAGCAUCA"}, "B3": {"name": "chr10:70718461:70718462:-_ENSMUSG00000019927_ENSMUST00000020085|mus_mus|FALSE|FALSE (ssRNA)", "RNA": "GGGAGUUCUACAGUCCGACGAUCGUAAAAACCAAAGGGCUCGUGGAACGAAGGACACGGCAAACGGCGCCCGGCUUAAUGCUAACGCUGGAAAAGACAUAGAUUUUACAGUACUCUGGCGUAAGUGAAAGUGUUUGAAACUUUCAACAGAGGAUUGAGCAUCA"}, "B4": {"name": "chr4:76721835:76721836:+_ENSG00000138768_ENST00000264904|hu_mus|hu_hu_hu_mus_True|28_28 (ssRNA)", "RNA": "GGGAGUUCUACAGUCCGACGAUCGUUUGGCUGGGGUUUCUGAGACGCUCUGGAAUAUAACUCAUGUUUGCUAAUAAAUCCUAGUUUCUCUAUGAAAUUCUCUUUGCAAUCCUCUUCCUCUAUUAGUUGCUUUAGUUUCUCUUUCAACAGAGGAUUGAGCAUCA"}, "B5": {"name": "100451482_100455505_703_CDS_ENSG00000114354_ENST00000490574|human|control|control (ssRNA)", "RNA": "GGGAGUUCUACAGUCCGACGAUCAACGCCUGGUGGGUGAGCUGCUGAGGAGGAGGAAGCAAUGCUGUCGGGUGUUCCUGAACGAUCUUCUGCAGGAGCACUGGGUGGCCCUGAAACCUGAUCAUCUGUUAAGCCAAACGCUGACAACAGAGGAUUGAGCAUCA"}, "B6": {"name": "121154423_121154905_660_CDS_ENSMUSG00000053931_ENSMUST00000029773|mouse|control|control (ssRNA)", "RNA": "GGGAGUUCUACAGUCCGACGAUCUACACUCUGGCCAGCCUUUAAUUUGCCUUCAUCAAAACGUCUUGUUUGUUUUUCUGCAUACUUAACGCCAAUGUCAAUGGUUGUAUGGAAUCCUUUUGUUUUCGCCAGACCUGCUAGAGCCAACAGAGGAUUGAGCAUCA"}, "B7": {"name": "chr9:96305504:96305505:+_ENSG00000048828_ENST00000277165|hu_hu|motif|central (ssRNA)", "RNA": "GGGAGUUCUACAGUCCGACGAUCAGCUGCCCAUUCUUUAAUGAUCACUGGUGAAAAUUCUGGUGGAAGUCUGUUCUUUCGGAAAGCAAGUCUCUCAGUUUUCUUUCUGCUUUCUGCCAAACUAAACAGGACUCCGUAAACAUACAACAGAGGAUUGAGCAUCA"}, "B8": {"name": "112566168_112598772_489_CDS_ENSMUSG00000021754_ENSMUST00000109267|mouse|control|control (ssRNA)", "RNA": "GGGAGUUCUACAGUCCGACGAUCCGGGCGAUCCUCCAUCUUGUGCAGUCCUUUGAGGGUUUCUUUAUUCUCCAUCUCUCGACCGGAGGGGGCCGCUGCAGAGGGCGGCUCGGCCCCCGCGGGGCUCCGGGCGCCGCUGUCCCGCAACAGAGGAUUGAGCAUCA"}, "B9": {"name": "117616667_117616787_4179_CDS_ENSMUSG00000025571_ENSMUST00000138299|mouse|control|control (ssRNA)", "RNA": "GGGAGUUCUACAGUCCGACGAUCUUUGGCACGUGACCAGCUAUGGGGAACAGCUACGGGAGGACUGGCUGGUGACUCACUGUUCUGAAUUAAAUCGUACCGGCCGUAAGAGUCAUCAAUGGAGGACUUACCUGGAGGCCCGAUCAACAGAGGAUUGAGCAUCA"}, "B10": {"name": "96419434_96420881_1025_CDS_ENSMUSG00000023169_ENSMUST00000088452|mouse|control|control (ssRNA)", "RNA": "GGGAGUUCUACAGUCCGACGAUCCCAGGCUGAAAAUGCAUCCUCCUCUCCCAUGAGGGAUUUUAUGGCUGAAGGAAGUUCGUUUUUUACUAUGAAGAGGUAGCUCAGCAUCGCCCCAGUGUUCUGCAGAGAGGUGGCUCCGAACAACAGAGGAUUGAGCAUCA"}, "B11": {"name": "59413454_59413574_593_CDS_ENSMUSG00000020108_ENSMUST00000020308|mouse|control|control (ssRNA)", "RNA": "GGGAGUUCUACAGUCCGACGAUCGGUCAACUGAAAGGUGGGCACCAGGCUGGGGUCGAGGGCCAGCUGAGCCACGCUAUGGCAGCUCUUGCCUUGCUCCACACACACGUCCAGCAGUGCCCCCCGCAGGCCGCACGGCUCACUCAACAGAGGAUUGAGCAUCA"}, "B12": {"name": "chr6:38654746:38654747:-_ENSG00000124767_ENST00000373365|hu_hu|FALSE|FALSE (ssRNA)", "RNA": "GGGAGUUCUACAGUCCGACGAUCAAAAUCCAGUGACUUCUUAGGAUCCUUCACUCGUAGCAUGGUCUGCUGCAAUAGAAAAUCCUUGGUACUGGGGUCCGCGUCGGAGCAGCAACUGAGGGCGGCCUCGUCCGUGAGGCCGCCCAACAGAGGAUUGAGCAUCA"}, "B13": {"name": "45362181_45362301_7668_3pUTR_ENSG00000175387_ENST00000356825|human|control|control (ssRNA)", "RNA": "GGGAGUUCUACAGUCCGACGAUCUACCAUCUUUAAUUAAAAAUAAGUAAAUCAAAGAGCAUAUUUGGAGAAACUAAGAGCUGUUAACUGUUUGGAGGGUAAAAGAAUACUUUUCUCGAAAUUUUUUUGAAGAAAAAUCUAAAACAACAGAGGAUUGAGCAUCA"}, "B14": {"name": "chr18:31598358:31598359:-_ENSMUSG00000024261_ENSMUST00000025110|mus_hu|FALSE|FALSE (ssRNA)", "RNA": "GGGAGUUCUACAGUCCGACGAUCAUGCAUUUUUCAUAGAAUUUACAAACACUGUGAUAUCAAACACAUUCUCAAAAACUGCUAAAGUACUGACACAAAACCUGACUCAAAAUGUAAAUUUUUCAGUAGACUUAAUUUCUAACUCAACAGAGGAUUGAGCAUCA"}, "B15": {"name": "chr11:118894041:118894042:+_ENSG00000196655_ENST00000359005|hu_mus|motif|central (ssRNA)", "RNA": "GGGAGUUCUACAGUCCGACGAUCAGGUUCAUCCUAUGACCCAGGUCCAAAAGUGCCAGCCUUCUCUGCCACCUCGGGAGCGGGCUUCAGGUUUUGAUCAAACAGCUCGCAUCUGAUAGGCAUUUCCAAGGAGUAGAAUGGAUUCAACAGAGGAUUGAGCAUCA"}, "B16": {"name": "chr14:89338683:89338684:+_ENSG00000165533_ENST00000346301|hu_hu|hu_hu_hu_mus_False|78_78 (ssRNA)", "RNA": "GGGAGUUCUACAGUCCGACGAUCGUGGUUGUUGUGGACCAGGGCCAGCCUGAAGCACUGAUGGGCCAAGUUUGUAUCUCCGAUUCCCACAGCUAUGUGCCCCAGGUUGUACCAGACAUCAGCUGCCUCUUCUUCAUUUUCAGCCAACAGAGGAUUGAGCAUCA"}, "B17": {"name": "chr14:105707756:105707757:+_ENSMUSG00000053253_ENSMUST00000138283|mus_hu|FALSE|FALSE (ssRNA)", "RNA": "GGGAGUUCUACAGUCCGACGAUCAUUUAUUUUUCUUAUAAAGGACAUUUGGUAUUCCCACAUUUUCUUAAAAUUUGUCCUAAAACAAAUUCUAUCUUUAACACUCACGUUUCUAAAUAUAUAUAUGUGUGUGUGUAUAUAUAUCAACAGAGGAUUGAGCAUCA"}, "B18": {"name": "chrX:71549400:71549401:+_ENSMUSG00000019087_ENSMUST00000019231|mus_hu|mus_mus_mus_hu_False|8_8 (ssRNA)", "RNA": "GGGAGUUCUACAGUCCGACGAUCGCAGUAGGAAGAGGGAAGCUCUUCAGUCCAGUGCGCUGCAGGGUGGGAAAGCAACAACACGGACACCGUCCCACCCUCAACCCCCCCACUGGCACAGGGUCACAUCUGGGUCAUCAAAGACAACAGAGGAUUGAGCAUCA"}, "B19": {"name": "chrX:140365796:140365797:-_ENSMUSG00000031285_ENSMUST00000033642|mus_mus|FALSE|FALSE (ssRNA)", "RNA": "GGGAGUUCUACAGUCCGACGAUCCUUCUCAUUACUUAAUGCCUGCAAGGUUCUGGUUCUGUAGAAGCUACAGUGGGCACUAUGAGUGGGACUUGGAAGUCCAUUCAUCCGUGACCCUCUCAUAUUUCUAGAUGCUUUGUCUCGCAACAGAGGAUUGAGCAUCA"}, "B20": {"name": "chr15:72934872:72934873:-_ENSMUSG00000036698_ENSMUST00000044113|mus_mus|motif|central (ssRNA)", "RNA": "GGGAGUUCUACAGUCCGACGAUCGACAUUUGGUCUGGGGAUACAUUUCAUAUUAAAAGUGUCACAAGUAAGCAUGGGCGGCGGCAGAAAGUACUUUGCUUCCAGUACUUUGGCCCAUCAGAAAGAAAACCUAUCCUUCAAGGUCAACAGAGGAUUGAGCAUCA"}, "B21": {"name": "chr4:56291666:56291667:+_ENSG00000134851_ENST00000381334|hu_mus|FALSE|FALSE (ssRNA)", "RNA": "GGGAGUUCUACAGUCCGACGAUCAAAAUACAGUGUUUCCCAUUACUUUUAGUUGUAAUGUACACUAUGUACAGAAAAGAGUUGCCUAUCUUAAGCUGAAUACUGAAGAACAGCUUGUUAAAAACCAGACUCUGGACUUAUAAACAACAGAGGAUUGAGCAUCA"}, "B22": {"name": "chr5:31552970:31552971:+_ENSG00000082213_ENST00000325366|hu_hu|FALSE|FALSE (ssRNA)", "RNA": "GGGAGUUCUACAGUCCGACGAUCCAUGUACAAAUAAGUUAAUUAAGGGCCUGUUACUAAACCAAGAUACAACAGGAGCCUAAUGUUUUGUUUGUUUCAAGAUGGAGGAGACUCUGCUGCAUACACUUGGAGGUCUAGAUUUCCCAACAGAGGAUUGAGCAUCA"}}, "note": "The list shows a part of the results.", "data": [{"biological_target": "T1, UNK ZnF1-3 (human, UniProt Q9C0B0 31-174)", "T1 sequence": "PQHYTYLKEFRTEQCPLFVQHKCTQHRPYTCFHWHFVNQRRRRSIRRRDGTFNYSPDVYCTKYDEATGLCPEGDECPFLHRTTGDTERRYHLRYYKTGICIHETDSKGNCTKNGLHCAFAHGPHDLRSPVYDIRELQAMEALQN", "assay": "nsRBNS (natural sequence RNA bind-n-seq); RBNS binding buffer (assumed for nsRBNS): 25 mM Tris pH 7.5, 150 mM KCl, 3 mM MgCl2, 0.01% Triton X-100, 500 ug/ml BSA, 20 U/ml SUPERase-In, 4 C; UNK is unkempt and MSI1 is Musashi-1; names of the RNAs are library labels; protein concentration not given here; high values mean tight binding", "units": {"binding signal": "enrichment R"}, "values": [{"binder": "B1", "binding signal": 1.52}, {"binder": "B2", "binding signal": 0.644}, {"binder": "B3", "binding signal": 0.757}, {"binder": "B4", "binding signal": 0.475}, {"binder": "B5", "binding signal": 2.05}, {"binder": "B6", "binding signal": 0.598}, {"binder": "B7", "binding signal": 1.21}, {"binder": "B8", "binding signal": 0.66}, {"binder": "B9", "binding signal": 2.09}, {"binder": "B10", "binding signal": 1.34}, {"binder": "B11", "binding signal": 0.45}, {"binder": "B12", "binding signal": 0.895}, {"binder": "B13", "binding signal": 1.18}, {"binder": "B14", "binding signal": 0.927}, {"binder": "B15", "binding signal": 1.16}, {"binder": "B16", "binding signal": 0.717}, {"binder": "B17", "binding signal": 0.687}, {"binder": "B18", "binding signal": 1.27}, {"binder": "B19", "binding signal": 0.399}, {"binder": "B20", "binding signal": 0.846}, {"binder": "B21", "binding signal": 0.627}, {"binder": "B22", "binding signal": 1.38}]}]}
